According to PubChem BioAssay (NCI):
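1) Cells in 96-well plates. 2) Compound, 48 h, 5 concentrations. 3) Linear interpolation between surrounding doses. 4) Unreached endpoint = highest concentration. TGI: total growth inhibition.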 Certain results were filed several times, with different values. The list is limited to them. There may be further records. A record mostly stands for its own series of concentrations, not given here; some values may only mark the edge of a range.

Columns and labels:
Assay in all cases: NCI-60 cell line screen, 48 h
EKVX NSCLC = test system: EKVX NSCLC
HCT-116 colon = test system: HCT-116 colon
IGROV1 ovarian = test system: IGROV1 ovarian
MCF7 breast = test system: MCF7 breast
SNB-19 CNS = test system: SNB-19 CNS

SMILES: CC(C)C[C@H](NC(=O)[C@@H]1CCCCCCCCCCC(=O)N[C@@H](CC(=O)N2CCC[C@@H]2C2CCCC2)C(=O)N1)B(O)O
- TGI (EKVX NSCLC): 472 nM and 14.3 µM
- TGI (HCT-116 colon): 7.28 nM and 1.76 µM
- TGI (IGROV1 ovarian): 23.8 nM and 1.5 µM
- TGI (MCF7 breast): 112 nM and 43.9 µM
- TGI (SNB-19 CNS): 332 nM and > 100 µM
